The structures appear in SMILES notation. Screen size: about 48,000 compounds; about 550 (1.1%) were called active. Roughly 4% stayed inconclusive and do not appear here. Rule as the data show it: active = potency below about 15 µM; inconclusive = mostly about 16 µM to 33 µM; inactive = weaker than that. The list shows a part of the results.
Potency is read from the fitted curve at half-maximal effect.

This experiment has as its target Lysosomal acid glucosylceramidase (Homo sapiens) (UniProt P04062). The experiment in a line: Glucocerebrosidase.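 Also: the screen sought inhibitors.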 As to conditions: purified enzyme, resorufin glucoside fluorescence (screen aimed at inhibitors), 20 min; series mostly up to 77 µM. A digest of the protocol: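 Wild-type enzyme at 0.2 nM final in 50mM citric acid/KH2PO4, 10mM sodium taurocholate, 0.01% tween-20, pH 5.9, with resorufin beta-D-glucopyranoside at 30 uM final. Compounds titrated, 20 min at RT, red fluorescence read; AC50 from titration.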
Sequence of UniProt P04062 (P04062 whole entry, looked up): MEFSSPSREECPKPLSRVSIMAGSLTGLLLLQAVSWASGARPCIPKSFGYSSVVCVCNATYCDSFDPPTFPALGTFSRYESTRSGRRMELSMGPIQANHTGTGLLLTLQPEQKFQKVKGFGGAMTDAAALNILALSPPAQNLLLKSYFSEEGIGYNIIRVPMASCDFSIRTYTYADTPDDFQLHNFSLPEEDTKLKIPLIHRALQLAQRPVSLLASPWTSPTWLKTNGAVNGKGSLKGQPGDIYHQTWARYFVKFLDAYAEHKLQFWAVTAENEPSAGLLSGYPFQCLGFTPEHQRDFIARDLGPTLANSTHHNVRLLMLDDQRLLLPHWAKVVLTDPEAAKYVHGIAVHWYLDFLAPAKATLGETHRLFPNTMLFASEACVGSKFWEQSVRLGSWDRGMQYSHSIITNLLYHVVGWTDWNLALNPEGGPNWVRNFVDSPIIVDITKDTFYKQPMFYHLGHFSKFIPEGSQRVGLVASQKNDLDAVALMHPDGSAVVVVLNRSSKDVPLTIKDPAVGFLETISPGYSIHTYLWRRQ
Regarding `O=S(=O)(c1ccc(S(=O)(=O)N(Cc2ccco2)Cc2ccccc2Cl)cc1)N1CCCC1`, the Potency was inactive: > 76.9 µM.
Regarding `N#CCSc1nc(-c2ccccc2)cs1`, the Potency is inactive: > 76.9 µM.
As for `COc1ccc(OC)c(-c2nc(C)sc2CC(=O)O)c1`, the Potency was inactive: > 76.9 µM.
For the molecule `Cc1cc(C)c(S(=O)(=O)n2nc(C)c(Br)c2C)c(C)c1`, the Potency is inactive: > 76.9 µM.
Consider `COc1ccc(NC(=O)C(c2ccc(C)cc2)N(C)C(=O)c2cnccn2)cc1` (centres undefined), for which the Potency was inactive: > 76.9 µM.
Regarding `O=C(Nc1cccc(F)c1)N1CC=C(n2c(=O)[nH]c3ccccc32)CC1`, the Potency was inactive: > 76.9 µM.
`O=C(c1cc2c(s1)CCCC2)N1CCN(C(=O)C2CCCO2)CC1` (centres undefined): the Potency was inactive: > 76.9 µM.
Consider `COc1cccc(-c2cc(C(=O)Nc3cc(C)n(Cc4ccc(Cl)cc4)n3)no2)c1`, for which the Potency is inactive: > 76.9 µM.
As for `C=CCn1c(SCC(=O)c2cccs2)nnc1-c1cccc(OC)c1`, the Potency is inactive: > 76.9 µM.
In the case of `CCC(=O)N1CCc2cc(S(=O)(=O)N3CCN(C(=O)c4ccco4)CC3)ccc21`, the Potency was inactive: > 76.9 µM.
Next, `COc1ccc(CCNS(=O)(=O)c2ccc(C3CNC(=O)C3)cc2)cc1OC` (centres undefined): inactive: > 76.9 µM; `COc1cc(OC)c(NC(=O)CCNC(=O)Cn2cnc3ccccc3c2=O)cc1Cl`: inactive: > 76.9 µM; `COc1ccc(C(C(=O)NC2CCCC2)N(C(=O)c2ccco2)c2ccc3c(c2)OCO3)cc1OC` (centres undefined): inactive: > 76.9 µM.
`Cc1ccc(C(=O)Nc2c(C)n(C)n(-c3ccccc3)c2=O)cc1S(=O)(=O)N1CCOCC1`: the Potency was inactive: > 76.9 µM.
Next, `CCn1cc(C(=O)NCc2ccc3c(c2)OCO3)c(=O)c2ccc(C)nc21`: inactive: > 76.9 µM; `COc1cc(C(=O)Nc2ccc(-c3nc4cc(C)ccc4o3)c(O)c2)cc(OC)c1OC`: inactive: > 76.9 µM; `COc1ccccc1NC(=O)C(Cc1ccc(Cl)cc1)c1nn[nH]n1` (centres undefined): inactive: > 76.9 µM.
Next, `Cc1cc(C)n2cc(CSc3ncccc3C(=O)O)nc2n1`: inactive: > 76.9 µM.
Next, `CCOC(=O)CCn1c(=O)c2c(nc(Br)n2Cc2ccccc2)n(C)c1=O`: inactive: > 76.9 µM; `CCOC(=O)c1ccc(NC(=O)CCc2nc(-c3ccccc3)no2)cc1`: inactive: > 76.9 µM; `Cc1cc(NC(=O)CSc2nc3ccccc3n2CC(=O)N2CCCCC2)no1`: inactive: > 76.9 µM.
For `COc1ccc(CNC(=O)COc2ccc(S(=O)(=O)NC(C)C)cc2)cc1`, the Potency is inactive: > 76.9 µM.
Next, `Cc1nc2ncccn2c1-c1csc(NCc2ccco2)n1`: “inactive”.
Take `O=C(COc1ccccc1F)Nc1ccc(S(=O)(=O)NCc2ccco2)cc1`: the Potency is inactive: > 76.9 µM.

Values taken from PubChem BioAssay AID360 (National Center for Advancing Translational Sciences (NCATS), 2006).
